According to publication PMC12136788:
The other results are listed elsewhere or left out.

B1: chr20:37186997:37186998:+_ENSG00000170471_ENST00000397040|hu_hu|motif|central (ssRNA)
RNA: GGGAGUUCUACAGUCCGACGAUCAUCAAAAAAUCCAGGUAUCGUGGAAUCAAGUGCAAUAAGGUGAGGAGGUAGACGACGGUUUGCAGGUUCCUUCAGUGCUUCUAAGGACAAAAAUCCAAAGUGUGAGAGAAAAAGGCGGGCCAACAGAGGAUUGAGCAUCA
B2: chr9:111175947:111175948:+_ENSMUSG00000046785_ENSMUST00000060711|mus_mus|motif|central (ssRNA)
RNA: GGGAGUUCUACAGUCCGACGAUCGGCCUGAAGUUUUGUUAGCUCCACUCUUACAGAAAUAGGCGCAUAUUCCGGUUUAAAGCGGAAUGGAUUUGAGAAAAGUUCUAAGUCCUUUUUAAUGAACCUGAGGUCCUUAAAAUGUCUCAACAGAGGAUUGAGCAUCA
B3: chr17:6048899:6048900:-_ENSMUSG00000015659_ENSMUST00000097432|mus_hu|FALSE|FALSE (ssRNA)
RNA: GGGAGUUCUACAGUCCGACGAUCUUUGACUUCCAACGAGGGGAAGAGAAGAUAGCGAAUAUUAACAGAGUAUUCAGCCAAACGUGAUCCAUGAUGAGGGACACUAUAAAAAAUUAUUCCUCUGGUAUUGUUGAUAACAGUACUCAACAGAGGAUUGAGCAUCA
B4: chr7:141450121:141450122:+_ENSG00000106028_ENST00000265304|hu_mus|hu_hu_hu_mus_True|8_18 (ssRNA)
RNA: GGGAGUUCUACAGUCCGACGAUCUCAUCCGUUCUAUGCCUUUUCUUUUGUCUGGUCACUCAGAAAUAUAAUGUUAUCAGCUAUGAUUGUUGUUGCUUGCCGCCUCACAUUGUUUUUAUCCAUGUAUUCACCAUAGUCCACUUUCAACAGAGGAUUGAGCAUCA
B5: 87157311_87160475_317_CDS_ENSMUSG00000021252_ENSMUST00000021676|mouse|control|control (ssRNA)
RNA: GGGAGUUCUACAGUCCGACGAUCUCCAAAUACAAACAACUCUGAGAGGAAGUGUCCCAGGGCGAGGAGGAAUGUCCACAGUGUGAUGUGAUAGAGUGUUUUGUUGUGGAUGUCAAUGGCACAGAGGCAGCGAAUCACUGAUGACAACAGAGGAUUGAGCAUCA
B6: chr4:142723943:142723944:-_ENSMUSG00000057637_ENSMUST00000105778|mus_hu|FALSE|FALSE (ssRNA)
RNA: GGGAGUUCUACAGUCCGACGAUCUAGGGAUUUACAAGGACUUGGGCUCCUGGUCCCAUCUGCAGGGUUUUCUACAGGUAAAUCGAUGCCAUUAUAUUCAUUGAGAAGAACCUUCUGCAGCAUGCAGGUGGUUGGUUUCCUUUUCAACAGAGGAUUGAGCAUCA
B7: 101923426_101923546_1554_3pUTR_ENSMUSG00000058655_ENSMUST00000169681|mouse|control|control (ssRNA)
RNA: GGGAGUUCUACAGUCCGACGAUCGGUGGAGGGGCUGGCAUUACCUUUAGAGGCUGGUCAGGUUUAGGAGGCUUAGAGGUUGGAGAGUGACAGUCUUCUUCUUUAUUGAGGGUUUCAUUUUCUAGAGACUUCUCACUCUCUCUCCAACAGAGGAUUGAGCAUCA
B8: chr1:196642661:196642662:+_ENSMUSG00000026640_ENSMUST00000027952|mus_hu|FALSE|FALSE (ssRNA)
RNA: GGGAGUUCUACAGUCCGACGAUCACACGCAAGAAUAUCUGUUCUGUUUGGGGGGAGUAUUUCCAUUCUGCCUGCCACCUUCCAUGCCAAGAUGAAGGCCAAAUAAGUCAAAGUGAGGACUUUGAAAUGCAGAAGAUGUUUCCUCAACAGAGGAUUGAGCAUCA
B9: chr5:125867735:125867736:-_ENSMUSG00000008348_ENSMUST00000136312|mus_mus|FALSE|FALSE (ssRNA)
RNA: GGGAGUUCUACAGUCCGACGAUCGGUUUUGCCUGUCAGGGUCUUCACAAAGAUCUGCAUCCCACCUCUGAGGCGAAGGACUAAGUGCAGGGUGGACUCUUUCUGGAUGUUGUAGUCUGACAGGGUGCGGCCAUCUUCCAGCUGCAACAGAGGAUUGAGCAUCA
B10: chr9:64573345:64573346:-_ENSMUSG00000004771_ENSMUST00000172298|mus_hu|motif|central (ssRNA)
RNA: GGGAGUUCUACAGUCCGACGAUCAGAAACAAUGCGGUAAAUCUCUGUUAAAAUUGUCUGAAAAGCAGCUUCUACAUUUGUAGAGUCGGGGGCCGAAGUUUCAAUGAAUGACAAACCAUUCUUUUCUGCAAAAGCUCUUGCUUCCAACAGAGGAUUGAGCAUCA
B11: chr12:73047227:73047228:+_ENSMUSG00000034574_ENSMUST00000085299|mus_hu|FALSE|FALSE (ssRNA)
RNA: GGGAGUUCUACAGUCCGACGAUCUUCAAAUCUUUUGGCAAAUUCUAGUUCAUCUUCAUUUCGGAGCAUUUCAAAAAAGUCUAAAUGCCUAUCUAAUGUUGAAUUUUCGUGUUCCCUUAAUUUAUCUAUUACAGGUUGAAUUCCCAACAGAGGAUUGAGCAUCA
B12: 79237222_79238426_402_CDS_ENSMUSG00000050668_ENSMUST00000170759|mouse|control|control (ssRNA)
RNA: GGGAGUUCUACAGUCCGACGAUCCUUCUGCCUGUUUCUCAGAUUAGCUUGCUGUUGCUUUUCUUCUUUCCGACGGGCUUCUCGGAUCUGCCUCAGCAUCGGCACACCGGGUCUGACAUCUUCUUGAACAUUAAUGAAGGAAUCCAACAGAGGAUUGAGCAUCA
B13: chr2:155479361:155479362:-_ENSMUSG00000038324_ENSMUST00000041059|mus_hu|FALSE|FALSE (ssRNA)
RNA: GGGAGUUCUACAGUCCGACGAUCCCACUCUUCCAACUCCUGAAGGAAGCUGGCUGUGCCCGUUGACUCUGACACCUUUCGAGUCGCCAGUUUGCAAAGCCGCUCAACAAAGCCAGGAAUGCUGAGAAGGGCCGCUUGAUUGAUCAACAGAGGAUUGAGCAUCA
B14: chr19:34954956:34954957:+_ENSG00000126261_ENST00000246548|hu_hu|motif|central (ssRNA)
RNA: GGGAGUUCUACAGUCCGACGAUCGAUCAAUAAAGUAUAGUCCUGGAGGAAGUCAUCUGCUUGAAGCCGGCUGCCAUUUCGGAUUCCAAAUUCUGACAACUUCUUGUGAUUAUUAGCUUCCGUCUCUCCCUCUUCGGAAGAUAUCAACAGAGGAUUGAGCAUCA
B15: chr4:17845017:17845018:+_ENSG00000109805_ENST00000514176|hu_mus|hu_hu_hu_mus_False|38_108 (ssRNA)
RNA: GGGAGUUCUACAGUCCGACGAUCGCUUCCUAACUUAGUAUCUUCAUUAAGGAACUCUGCAAGGUUAAGUUUACUUUUCUGUAGCGCAGCUGUUUUGCUCGUCUUGGGUAAUCUCAUCUUCAUUUCUGAUGGUGGUUCAUGAUCCAACAGAGGAUUGAGCAUCA
B16: chr9:96327448:96327449:+_ENSG00000048828_ENST00000277165|hu_mus|motif|central (ssRNA)
RNA: GGGAGUUCUACAGUCCGACGAUCUAGUCACGAGGUUUCAGAACACAUUGUGUUGACUUUGAAAGGUCAUUUGCAUCUUCGGUGAUUUCAACGUAAUCUCCAUUGAACUUGCUUGUAAAGGAUGUAUGAUGUACUGUGUAUUCACAACAGAGGAUUGAGCAUCA
B17: chr10:122565287:122565288:-_ENSMUSG00000020124_ENSMUST00000020334|mus_mus|FALSE|FALSE (ssRNA)
RNA: GGGAGUUCUACAGUCCGACGAUCAAUUUUGGGCACAAUAACUUUGUAUUGCAUAGGUUUAGCAAGUGGAUCCAUUCUAACUAAAUAAACUUCCAAGCUACGUUCUUUUUUCAUAGGCAAUGGAAGAGUCAAGUAACAGAAAGGCAACAGAGGAUUGAGCAUCA
B18: chrX:98862621:98862622:+_ENSMUSG00000034160_ENSMUST00000044475|mus_hu|mus_mus_mus_hu_False|58_78 (ssRNA)
RNA: GGGAGUUCUACAGUCCGACGAUCCUGCAUCUCCUUUAGAGUGUUUCCCAUAUUAGAAUAAGCAUCAGCAAAGGUAGGACUAAUUCGAAUAGCCUCCUUAUAAUGCAUCAGAGCUUCCUGCAGUUUUCCCUGCUGCUGCAGUACCAACAGAGGAUUGAGCAUCA
B19: chr9:95013113:95013114:-_ENSG00000196305_ENST00000443024|hu_hu|hu_hu_hu_mus_False|18_18 (ssRNA)
RNA: GGGAGUUCUACAGUCCGACGAUCCUCAGUCAGAAAGGGCGUGUAAGGGGCCAUCAGUCUGCACAGAGAAAGCAGGACACUGAACAGUGUCUCCAGAGCCAUGACACAGUCUUCCACCCCAUUUUCACCCUUUAACCUCCUCCUCAACAGAGGAUUGAGCAUCA
B20: chr6:97339032:97339033:-_ENSG00000123545_ENST00000316149|hu_mus|FALSE|FALSE (ssRNA)
RNA: GGGAGUUCUACAGUCCGACGAUCUCUUCAUUUUGAUUGUAUUGCUUUCCUGUCUUCUGGAGGUAAGAUUUUGACUUCAAAAGUAACAAAAUAUUUGAGAAGGGAAUUUACAUCCUUCAGUUCUAAAUAGUACUCUUGAGCGAUCAACAGAGGAUUGAGCAUCA
B21: 64617805_64618362_1239_CDS_ENSMUSG00000024588_ENSMUST00000025484|mouse|control|control (ssRNA)
RNA: GGGAGUUCUACAGUCCGACGAUCCAGACUCAACUGCGUGGAGCACAGCUUGUUGGACUGGAUGUGGGAGUGCACCAGAUCAGCCAGGGCCUUGGAGAACAAUGGAUUUCCAUUAAGAGACUCCGCUCUUCUGAUGUUCUCAGCCAACAGAGGAUUGAGCAUCA
B22: chr5:74677807:74677808:-_ENSG00000113163_ENST00000380494|hu_hu|FALSE|FALSE (ssRNA)
RNA: GGGAGUUCUACAGUCCGACGAUCACGGACACAUCGGUUGUUUAGAGGAGCACUGUCAUGAUCCACAGAAAAAUUACAAACUAUCCAAGUUUCAGGGUCAUUUUCAGUCAAGGCUGGUAUCUUUCGAAUGACAGAAAGAUAUAACAACAGAGGAUUGAGCAUCA

These binders were tested against T1, UNK ZnF1-3 (human, UniProt Q9C0B0 31-174) (assay: nsRBNS (natural sequence RNA bind-n-seq); RBNS binding buffer (assumed for nsRBNS): 25 mM Tris pH 7.5, 150 mM KCl, 3 mM MgCl2, 0.01% Triton X-100, 500 ug/ml BSA, 20 U/ml SUPERase-In, 4 C; UNK is unkempt and MSI1 is Musashi-1; names of the RNAs are library labels; protein concentration not given here; high values mean tight binding).
T1 sequence: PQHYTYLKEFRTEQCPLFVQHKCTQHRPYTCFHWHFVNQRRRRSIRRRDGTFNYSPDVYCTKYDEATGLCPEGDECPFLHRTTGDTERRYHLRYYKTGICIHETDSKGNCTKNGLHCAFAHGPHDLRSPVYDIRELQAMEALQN

| Binder | binding signal [enrichment R] |
| --- | --- |
| B1 | 1.75 |
| B2 | 0.617 |
| B3 | 1.7 |
| B4 | 0.392 |
| B5 | 1.85 |
| B6 | 0.538 |
| B7 | 1.31 |
| B8 | 1.14 |
| B9 | 0.824 |
| B10 | 1.24 |
| B11 | 0.588 |
| B12 | 0.58 |
| B13 | 0.817 |
| B14 | 0.861 |
| B15 | 0.499 |
| B16 | 0.889 |
| B17 | 1.18 |
| B18 | 0.944 |
| B19 | 1.17 |
| B20 | 0.889 |
| B21 | 0.944 |
| B22 | 0.914 |
